Source: publication PMC12669739
These are yes or no findings as the source states them, for the method shown. For some assays here: In cells and extracts the contact can be indirect. Some binding calls cover weakened binding; strength is not graded here. For some assays here: Sequences can lack the tags named with a protein.

Protein sequences, listed by entry. Tags and fused reporters are not part of them. Lines headed by an entry give the natural chain unless they say otherwise; changes in a name come on top. Residues count along the entry.
UniProt O00308: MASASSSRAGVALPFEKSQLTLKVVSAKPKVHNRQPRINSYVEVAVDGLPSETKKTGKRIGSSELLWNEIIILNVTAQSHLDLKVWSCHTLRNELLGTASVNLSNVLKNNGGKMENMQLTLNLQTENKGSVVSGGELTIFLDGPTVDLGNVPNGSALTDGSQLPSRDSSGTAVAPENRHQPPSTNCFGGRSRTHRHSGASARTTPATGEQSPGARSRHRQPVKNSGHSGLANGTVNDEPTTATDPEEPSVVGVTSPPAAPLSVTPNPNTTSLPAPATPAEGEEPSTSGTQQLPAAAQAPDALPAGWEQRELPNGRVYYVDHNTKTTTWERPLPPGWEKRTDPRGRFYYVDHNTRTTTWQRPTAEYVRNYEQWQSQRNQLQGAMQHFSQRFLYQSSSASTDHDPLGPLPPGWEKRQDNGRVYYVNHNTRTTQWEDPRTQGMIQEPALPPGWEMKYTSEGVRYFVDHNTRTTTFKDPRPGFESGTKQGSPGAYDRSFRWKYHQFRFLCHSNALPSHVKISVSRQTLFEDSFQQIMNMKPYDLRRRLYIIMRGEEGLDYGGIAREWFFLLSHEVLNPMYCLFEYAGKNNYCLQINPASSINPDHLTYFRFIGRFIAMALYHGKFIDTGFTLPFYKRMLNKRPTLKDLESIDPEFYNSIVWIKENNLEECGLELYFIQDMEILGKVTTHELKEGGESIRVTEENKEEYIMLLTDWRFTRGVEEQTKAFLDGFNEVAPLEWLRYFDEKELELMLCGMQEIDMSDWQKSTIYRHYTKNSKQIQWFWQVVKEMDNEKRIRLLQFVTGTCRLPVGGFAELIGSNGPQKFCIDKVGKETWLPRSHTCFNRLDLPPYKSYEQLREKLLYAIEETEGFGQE
UniProt Q9UKB1: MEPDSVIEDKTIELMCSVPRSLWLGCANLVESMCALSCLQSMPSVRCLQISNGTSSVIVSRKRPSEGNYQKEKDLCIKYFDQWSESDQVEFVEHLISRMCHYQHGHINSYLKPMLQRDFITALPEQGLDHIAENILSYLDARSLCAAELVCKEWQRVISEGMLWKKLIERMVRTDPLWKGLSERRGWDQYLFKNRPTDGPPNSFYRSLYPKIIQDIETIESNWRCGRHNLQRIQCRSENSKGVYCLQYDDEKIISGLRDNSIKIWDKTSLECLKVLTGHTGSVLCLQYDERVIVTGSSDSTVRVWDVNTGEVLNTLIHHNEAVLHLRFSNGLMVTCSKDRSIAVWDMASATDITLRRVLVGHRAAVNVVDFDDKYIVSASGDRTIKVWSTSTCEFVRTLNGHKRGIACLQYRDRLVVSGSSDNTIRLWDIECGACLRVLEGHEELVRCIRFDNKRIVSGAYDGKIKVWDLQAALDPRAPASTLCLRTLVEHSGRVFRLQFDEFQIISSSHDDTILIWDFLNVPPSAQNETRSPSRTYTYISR
UniProt O95155: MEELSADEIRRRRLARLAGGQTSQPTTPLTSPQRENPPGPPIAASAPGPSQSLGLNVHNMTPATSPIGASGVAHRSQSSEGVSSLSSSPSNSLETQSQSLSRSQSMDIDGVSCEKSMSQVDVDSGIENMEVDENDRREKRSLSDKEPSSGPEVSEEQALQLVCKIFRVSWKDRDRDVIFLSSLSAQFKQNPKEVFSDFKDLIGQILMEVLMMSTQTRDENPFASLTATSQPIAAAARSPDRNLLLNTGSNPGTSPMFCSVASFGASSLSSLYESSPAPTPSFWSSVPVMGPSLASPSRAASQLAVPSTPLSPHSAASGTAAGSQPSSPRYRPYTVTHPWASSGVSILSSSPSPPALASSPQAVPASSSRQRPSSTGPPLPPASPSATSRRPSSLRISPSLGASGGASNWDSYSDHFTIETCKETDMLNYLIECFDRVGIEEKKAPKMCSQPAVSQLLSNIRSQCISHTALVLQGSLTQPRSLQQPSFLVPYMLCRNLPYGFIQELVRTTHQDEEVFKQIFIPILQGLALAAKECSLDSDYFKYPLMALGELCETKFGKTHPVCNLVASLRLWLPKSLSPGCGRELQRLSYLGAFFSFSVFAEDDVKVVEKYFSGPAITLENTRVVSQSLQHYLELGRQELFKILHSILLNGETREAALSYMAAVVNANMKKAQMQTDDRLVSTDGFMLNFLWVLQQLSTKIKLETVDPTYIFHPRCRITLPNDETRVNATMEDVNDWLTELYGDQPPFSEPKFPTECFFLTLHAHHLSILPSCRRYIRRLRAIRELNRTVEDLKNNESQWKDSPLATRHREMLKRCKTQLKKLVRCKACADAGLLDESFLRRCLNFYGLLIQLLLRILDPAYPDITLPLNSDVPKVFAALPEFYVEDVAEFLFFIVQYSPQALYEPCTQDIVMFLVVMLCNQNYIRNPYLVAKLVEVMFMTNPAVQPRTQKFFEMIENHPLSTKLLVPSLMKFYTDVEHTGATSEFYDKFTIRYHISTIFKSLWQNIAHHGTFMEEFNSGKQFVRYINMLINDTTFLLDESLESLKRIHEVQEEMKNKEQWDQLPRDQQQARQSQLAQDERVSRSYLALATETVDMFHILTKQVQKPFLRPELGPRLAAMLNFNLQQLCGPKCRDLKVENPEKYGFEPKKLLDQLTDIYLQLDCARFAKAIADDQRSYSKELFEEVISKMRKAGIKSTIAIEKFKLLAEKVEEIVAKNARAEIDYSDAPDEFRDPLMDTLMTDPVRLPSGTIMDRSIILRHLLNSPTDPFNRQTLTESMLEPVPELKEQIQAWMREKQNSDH
UniProt P60953: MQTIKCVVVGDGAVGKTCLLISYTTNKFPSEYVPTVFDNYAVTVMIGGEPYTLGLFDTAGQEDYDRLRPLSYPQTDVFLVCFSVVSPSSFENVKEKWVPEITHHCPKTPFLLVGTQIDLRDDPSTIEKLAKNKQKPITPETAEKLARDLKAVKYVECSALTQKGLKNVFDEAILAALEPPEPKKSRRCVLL
UniProt P01106, residues 16-454: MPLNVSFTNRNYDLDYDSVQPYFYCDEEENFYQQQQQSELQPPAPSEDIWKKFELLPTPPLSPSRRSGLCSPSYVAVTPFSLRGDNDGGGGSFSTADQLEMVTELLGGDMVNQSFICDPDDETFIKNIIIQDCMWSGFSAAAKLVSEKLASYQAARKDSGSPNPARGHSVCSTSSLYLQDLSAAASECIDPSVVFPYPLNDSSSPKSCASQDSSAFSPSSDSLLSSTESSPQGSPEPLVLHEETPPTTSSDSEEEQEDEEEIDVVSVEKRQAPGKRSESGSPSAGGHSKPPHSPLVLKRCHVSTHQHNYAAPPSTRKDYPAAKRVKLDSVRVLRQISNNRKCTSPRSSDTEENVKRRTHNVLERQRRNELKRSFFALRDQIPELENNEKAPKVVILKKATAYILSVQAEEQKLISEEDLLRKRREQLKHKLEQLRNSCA
UniProt Q9UIW2, residues 27-1896: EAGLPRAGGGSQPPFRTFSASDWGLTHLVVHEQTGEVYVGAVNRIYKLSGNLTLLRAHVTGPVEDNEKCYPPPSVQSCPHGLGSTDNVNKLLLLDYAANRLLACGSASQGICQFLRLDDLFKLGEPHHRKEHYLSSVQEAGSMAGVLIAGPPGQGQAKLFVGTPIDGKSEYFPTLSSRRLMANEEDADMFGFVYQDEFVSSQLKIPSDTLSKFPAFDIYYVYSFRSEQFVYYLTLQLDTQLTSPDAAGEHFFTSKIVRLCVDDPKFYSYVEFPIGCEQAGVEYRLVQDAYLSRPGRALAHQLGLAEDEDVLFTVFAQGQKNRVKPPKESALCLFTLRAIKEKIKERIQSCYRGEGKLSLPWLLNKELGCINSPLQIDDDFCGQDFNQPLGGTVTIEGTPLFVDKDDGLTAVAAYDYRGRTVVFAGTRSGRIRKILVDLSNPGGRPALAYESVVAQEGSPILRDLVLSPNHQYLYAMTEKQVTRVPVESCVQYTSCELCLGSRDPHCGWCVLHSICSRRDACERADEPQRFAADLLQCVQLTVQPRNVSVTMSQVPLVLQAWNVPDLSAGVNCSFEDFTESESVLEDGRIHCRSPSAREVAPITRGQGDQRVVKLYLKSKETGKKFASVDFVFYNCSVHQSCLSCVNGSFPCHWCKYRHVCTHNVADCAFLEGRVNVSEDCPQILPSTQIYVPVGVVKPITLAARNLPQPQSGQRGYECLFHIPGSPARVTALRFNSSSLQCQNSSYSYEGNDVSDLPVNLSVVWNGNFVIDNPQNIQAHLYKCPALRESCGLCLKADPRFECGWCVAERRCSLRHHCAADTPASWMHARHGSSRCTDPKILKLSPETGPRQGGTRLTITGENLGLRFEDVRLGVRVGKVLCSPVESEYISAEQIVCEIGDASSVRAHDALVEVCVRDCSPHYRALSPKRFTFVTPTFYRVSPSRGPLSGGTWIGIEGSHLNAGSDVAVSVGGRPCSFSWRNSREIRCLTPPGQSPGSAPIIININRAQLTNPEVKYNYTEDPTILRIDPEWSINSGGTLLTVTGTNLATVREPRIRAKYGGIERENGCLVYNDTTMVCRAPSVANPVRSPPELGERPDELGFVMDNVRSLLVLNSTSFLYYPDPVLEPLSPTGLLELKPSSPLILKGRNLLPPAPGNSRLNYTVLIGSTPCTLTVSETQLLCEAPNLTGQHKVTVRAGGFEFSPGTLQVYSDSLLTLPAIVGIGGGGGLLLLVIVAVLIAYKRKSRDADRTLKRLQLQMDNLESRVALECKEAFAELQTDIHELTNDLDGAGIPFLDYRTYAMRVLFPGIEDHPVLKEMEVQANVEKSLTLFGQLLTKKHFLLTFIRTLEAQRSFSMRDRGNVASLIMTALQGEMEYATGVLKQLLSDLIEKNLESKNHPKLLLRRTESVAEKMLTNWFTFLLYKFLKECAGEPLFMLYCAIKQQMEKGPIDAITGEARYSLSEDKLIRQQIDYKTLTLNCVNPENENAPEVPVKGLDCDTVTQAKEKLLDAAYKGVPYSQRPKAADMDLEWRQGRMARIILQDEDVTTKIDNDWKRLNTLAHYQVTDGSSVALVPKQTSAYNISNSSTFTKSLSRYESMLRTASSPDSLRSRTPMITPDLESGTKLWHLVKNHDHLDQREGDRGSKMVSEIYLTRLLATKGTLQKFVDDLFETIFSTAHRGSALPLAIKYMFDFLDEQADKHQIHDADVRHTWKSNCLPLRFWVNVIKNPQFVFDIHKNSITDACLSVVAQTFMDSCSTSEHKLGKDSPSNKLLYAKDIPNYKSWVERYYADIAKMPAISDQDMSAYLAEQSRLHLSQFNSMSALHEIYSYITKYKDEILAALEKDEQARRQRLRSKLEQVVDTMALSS
UniProt Q9NS98, residues 23-782: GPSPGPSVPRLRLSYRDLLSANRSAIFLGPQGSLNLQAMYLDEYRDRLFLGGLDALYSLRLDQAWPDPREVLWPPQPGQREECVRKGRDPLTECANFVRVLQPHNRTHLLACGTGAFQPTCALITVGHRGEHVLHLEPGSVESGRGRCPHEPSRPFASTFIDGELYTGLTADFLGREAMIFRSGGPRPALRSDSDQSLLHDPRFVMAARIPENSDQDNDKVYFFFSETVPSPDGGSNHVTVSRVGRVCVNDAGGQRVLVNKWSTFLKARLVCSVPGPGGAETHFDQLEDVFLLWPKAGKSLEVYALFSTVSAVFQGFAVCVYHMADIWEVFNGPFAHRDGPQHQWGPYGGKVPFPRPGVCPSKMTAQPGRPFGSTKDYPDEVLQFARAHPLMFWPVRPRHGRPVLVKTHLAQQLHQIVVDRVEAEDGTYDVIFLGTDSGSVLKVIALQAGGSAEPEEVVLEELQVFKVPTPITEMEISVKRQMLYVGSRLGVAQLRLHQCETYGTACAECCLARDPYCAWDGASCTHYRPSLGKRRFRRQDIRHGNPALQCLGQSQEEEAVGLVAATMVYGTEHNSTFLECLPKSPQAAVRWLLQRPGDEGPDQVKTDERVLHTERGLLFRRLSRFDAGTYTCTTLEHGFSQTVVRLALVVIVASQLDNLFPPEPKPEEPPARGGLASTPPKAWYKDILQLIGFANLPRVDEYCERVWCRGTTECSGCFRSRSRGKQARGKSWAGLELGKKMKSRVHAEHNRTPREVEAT

How the values were obtained:
[1] = biological target: VC155-tagged WWP2 (human) (UniProt O00308); experiment: split reporter; bimolecular fluorescence complementation in HEK-293 cells co-transfected for 48 h, without SEMA3G; fixed cells, confocal microscopy; CFP signal for Cdc42 with WWP2
MYC-tagged WWP2 (human) = MYC-tagged WWP2 (human) (UniProt O00308); experiment: co-IP; HEK-293 cells co-transfected with tagged proteins for 48 h; IP buffer 20 mM Tris-HCl, 150 mM NaCl, 1% Triton X-100, 0.5% sodium deoxycholate; tag antibodies overnight at 4 °C, Protein A/G beads, immunoblot; in Fig. 7G, J also with Flag-c-Myc and HA-ubiquitin, in Fig. 7J with or without SEMA3G (200 ng/ml) for 48 h
MYC-tagged FBXL3 (human) = biological target: T1, MYC-tagged FBXL3 (human) (UniProt Q9UKT7); experiment: as above
T1 sequence: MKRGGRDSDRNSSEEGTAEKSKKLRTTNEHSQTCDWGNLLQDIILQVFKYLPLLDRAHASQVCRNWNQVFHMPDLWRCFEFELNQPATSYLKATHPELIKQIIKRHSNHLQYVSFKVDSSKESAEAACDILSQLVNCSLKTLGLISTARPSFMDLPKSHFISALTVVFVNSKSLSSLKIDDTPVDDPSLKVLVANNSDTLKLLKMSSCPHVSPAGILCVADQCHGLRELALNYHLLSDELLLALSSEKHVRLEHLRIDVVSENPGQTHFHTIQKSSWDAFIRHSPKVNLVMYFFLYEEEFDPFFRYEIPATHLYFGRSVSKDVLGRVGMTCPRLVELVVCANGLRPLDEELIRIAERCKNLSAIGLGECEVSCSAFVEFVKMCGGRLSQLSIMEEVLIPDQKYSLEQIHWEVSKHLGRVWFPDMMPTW

[2] = biological target: MYC-tagged FBXW11 (human) (UniProt Q9UKB1); experiment: as above
MYC-tagged UBE4A (human) = biological target: T2, MYC-tagged UBE4A (human) (UniProt Q14139); experiment: as above
T2 sequence: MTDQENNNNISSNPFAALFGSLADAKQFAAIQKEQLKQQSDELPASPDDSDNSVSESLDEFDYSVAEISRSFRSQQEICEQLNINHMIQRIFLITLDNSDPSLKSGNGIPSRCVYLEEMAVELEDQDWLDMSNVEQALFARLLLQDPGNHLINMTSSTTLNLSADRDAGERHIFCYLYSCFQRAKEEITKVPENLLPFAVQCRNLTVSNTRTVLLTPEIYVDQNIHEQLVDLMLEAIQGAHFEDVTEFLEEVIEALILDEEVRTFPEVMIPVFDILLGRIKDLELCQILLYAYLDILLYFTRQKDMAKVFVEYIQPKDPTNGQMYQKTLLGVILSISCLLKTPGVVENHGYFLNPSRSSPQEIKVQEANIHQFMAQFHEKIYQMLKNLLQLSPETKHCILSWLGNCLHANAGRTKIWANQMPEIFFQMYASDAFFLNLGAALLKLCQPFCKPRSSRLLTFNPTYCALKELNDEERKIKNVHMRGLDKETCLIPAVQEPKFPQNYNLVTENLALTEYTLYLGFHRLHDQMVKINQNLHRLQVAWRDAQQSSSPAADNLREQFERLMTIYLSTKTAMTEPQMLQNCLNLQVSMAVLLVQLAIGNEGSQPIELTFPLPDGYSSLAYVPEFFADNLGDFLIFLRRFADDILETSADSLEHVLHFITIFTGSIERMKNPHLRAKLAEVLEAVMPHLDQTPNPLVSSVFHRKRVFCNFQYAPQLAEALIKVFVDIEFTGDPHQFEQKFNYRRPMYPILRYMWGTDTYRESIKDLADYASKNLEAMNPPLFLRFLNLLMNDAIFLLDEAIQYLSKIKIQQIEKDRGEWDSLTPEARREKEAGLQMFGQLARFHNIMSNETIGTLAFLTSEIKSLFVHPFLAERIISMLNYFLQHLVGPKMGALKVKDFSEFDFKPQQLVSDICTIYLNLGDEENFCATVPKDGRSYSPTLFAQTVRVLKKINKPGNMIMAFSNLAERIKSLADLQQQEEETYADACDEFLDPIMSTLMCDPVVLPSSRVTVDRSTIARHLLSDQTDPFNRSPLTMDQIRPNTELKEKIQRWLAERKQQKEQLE

MYC-tagged UBOX5 (human) = biological target: T3, MYC-tagged UBOX5 (human) (UniProt O94941); experiment: as above
T3 sequence: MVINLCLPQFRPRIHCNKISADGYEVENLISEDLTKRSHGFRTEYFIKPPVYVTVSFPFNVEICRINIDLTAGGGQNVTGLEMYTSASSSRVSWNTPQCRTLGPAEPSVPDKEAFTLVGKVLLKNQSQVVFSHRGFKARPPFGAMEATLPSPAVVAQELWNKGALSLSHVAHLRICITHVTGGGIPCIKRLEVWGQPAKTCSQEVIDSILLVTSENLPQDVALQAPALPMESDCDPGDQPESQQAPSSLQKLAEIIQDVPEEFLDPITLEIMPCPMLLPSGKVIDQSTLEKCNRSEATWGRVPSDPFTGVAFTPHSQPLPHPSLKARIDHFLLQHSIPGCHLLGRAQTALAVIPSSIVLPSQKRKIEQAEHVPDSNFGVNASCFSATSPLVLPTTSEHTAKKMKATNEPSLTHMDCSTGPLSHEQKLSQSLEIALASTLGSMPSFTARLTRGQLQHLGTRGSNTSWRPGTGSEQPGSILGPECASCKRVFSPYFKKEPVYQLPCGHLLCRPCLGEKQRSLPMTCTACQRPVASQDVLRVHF

MYC-tagged UBE4B (human) = MYC-tagged UBE4B (human) (UniProt O95155); experiment: as above
HA-tagged NRP2 (human) = biological target: T4, HA-tagged NRP2 (human) (UniProt O60462); experiment: as above
T4 sequence: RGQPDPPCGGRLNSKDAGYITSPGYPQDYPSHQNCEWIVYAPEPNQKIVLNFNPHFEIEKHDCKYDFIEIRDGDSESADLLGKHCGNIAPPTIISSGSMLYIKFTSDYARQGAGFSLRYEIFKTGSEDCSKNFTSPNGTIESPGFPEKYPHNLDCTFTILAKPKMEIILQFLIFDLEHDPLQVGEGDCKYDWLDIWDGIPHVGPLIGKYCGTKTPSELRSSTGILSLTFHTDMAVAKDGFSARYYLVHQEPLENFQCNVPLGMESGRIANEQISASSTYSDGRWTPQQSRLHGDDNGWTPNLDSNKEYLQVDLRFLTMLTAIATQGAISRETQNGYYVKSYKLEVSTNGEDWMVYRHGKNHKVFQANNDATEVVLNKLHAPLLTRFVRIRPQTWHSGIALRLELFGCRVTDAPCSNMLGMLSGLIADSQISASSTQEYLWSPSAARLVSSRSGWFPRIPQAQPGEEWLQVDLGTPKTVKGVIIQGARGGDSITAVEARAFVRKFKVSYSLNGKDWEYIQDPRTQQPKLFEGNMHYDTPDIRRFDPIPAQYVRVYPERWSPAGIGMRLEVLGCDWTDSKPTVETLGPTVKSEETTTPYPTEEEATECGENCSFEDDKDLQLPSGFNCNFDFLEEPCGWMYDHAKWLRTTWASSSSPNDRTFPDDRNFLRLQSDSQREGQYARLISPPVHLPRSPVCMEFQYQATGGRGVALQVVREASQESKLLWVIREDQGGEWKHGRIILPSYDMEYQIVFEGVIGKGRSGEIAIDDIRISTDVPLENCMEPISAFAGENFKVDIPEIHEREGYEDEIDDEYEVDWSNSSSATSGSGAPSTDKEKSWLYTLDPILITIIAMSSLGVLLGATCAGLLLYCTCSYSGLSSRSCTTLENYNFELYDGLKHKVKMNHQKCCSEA

[3] = biological target: VC155-tagged WWP2 (human) (UniProt O00308); experiment: split reporter; bimolecular fluorescence complementation in HEK-293 cells co-transfected for 12 h and then incubated with SEMA3G (200 ng/ml) for 48 h; confocal microscopy; CFP signal for Cdc42 with WWP2, Venus signal for WWP2 with c-Myc
[4] = biological target: T5, NRP2 (endogenous, GSC07 tumour tissue and GSC cells) (human (endogenous in GSC07 xenograft tumour; host tissue is mouse)) (UniProt O60462); experiment: alkaline phosphatase ligand binding assay; brain sections of GSC07 tumour-bearing nude mice incubated with AP-SEMA3G (2 nM) for 90 min at room temperature, endogenous AP inactivated at 65 °C, BCIP/NBT colour development; with or without pre-incubation with an NRP2-neutralizing antibody
T5 sequence: T4 sequence

[5] = biological target: endogenous WWP2 (GSC07 cells) (human (endogenous in GSC07)) (UniProt O00308); experiment: co-IP; endogenous proteins in GSC07 cell lysate; IP buffer 20 mM Tris-HCl, 150 mM NaCl, 1% Triton X-100, 0.5% sodium deoxycholate; immunoblot

How did the binding [1] turn out when “CrN173-tagged Cdc42^Q61L (from UniProt P60953 1-191)” was run?
Its binding is “binds”.

How did the binding [1] turn out when “CrN173-tagged Cdc42^T17N (from UniProt P60953 1-191)” was run?
Its binding is “binds weakly”.

Which binding [1] does the source give for “CrN173-tagged Cdc42^WT (from UniProt P60953 1-191)” here?
Its binding is “binds”.

What does the source list for “Flag-tagged c-Myc (from UniProt P01106-1 1-439)”?
binding (MYC-tagged WWP2 (human)): binds; binding (MYC-tagged FBXL3 (human)): no binding; binding [2]: no binding; binding (MYC-tagged UBE4A (human)): no binding; binding (MYC-tagged UBOX5 (human)): no binding; binding (MYC-tagged UBE4B (human)): no binding

Which binding (MYC-tagged WWP2 (human)) does the source give for “GFP-tagged Cdc42^WT (from UniProt P60953 1-191)” here?
Its binding is “binds”.

“MYC-tagged PLXNA1 (from UniProt Q9UIW2 27-1896) (receptor)” was tested. Which binding (HA-tagged NRP2 (human)) did it give?
Its binding is “binds”.

Which binding [3] does the source give for “VN173-tagged c-Myc (from UniProt P01106-1 1-439)” here?
Its binding is “binds”.

With “alkaline phosphatase-tagged (AP-tagged) recombinant SEMA3G-AP (from UniProt Q9NS98 23-782) (ligand)” as the substance, how does the binding [4] read?
The binding was “binds”.

For “endogenous c-Myc (GSC07 cells) (from UniProt P01106-1 1-439)”, which binding [5] is on record?
The binding was “binds”.
